Source: PubChem BioAssay AID651815 (National Center for Advancing Translational Sciences (NCATS), 2012)
About 1,100 (52%) of roughly 2,100 compounds were called active. So high a share suggests a set chosen from earlier hits. This list was built around the results that the source calls inconclusive (neither active nor inactive); the mix of calls is not that of the screen. Calls follow the shape of the dose curve; as a rule, active = well fitted inhibition curve with a large enough effect; inconclusive = small, poorly fitted or top-dose-only effect; inactive = no such curve, though single readings can be large or run the other way. Potencies of inconclusive entries are left out as doubtful fits.

These compounds were tested against DNA dC->dU-editing enzyme APOBEC-3F (Homo sapiens) (UniProt Q8IUX4) (assay: qHTS for inhibitors of Vif-A3F interactions: Cherry picks counterscreen). Settings: HeLa A3F-eYFP/Vif cells, eYFP fluorescence, 24 h; series mostly up to 46.1 µM.
Procedure, shortened: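 HeLa cells stably expressing A3F-eYFP and Vif, cultured overnight, then treated 24 h at 37 degrees C with compounds at several concentrations; yellow fluorescence (488 nm Ex/500-530 nm Em) imaged on Acumen; MG132 positive control.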
Also: nearly all actives have a fitted effect of over 65% in size.
Potency is read from the fitted curve at half-maximal effect; tags tell the direction and shape of the fitted curve.

Chain of UniProt Q8IUX4 (Q8IUX4 whole entry, looked up): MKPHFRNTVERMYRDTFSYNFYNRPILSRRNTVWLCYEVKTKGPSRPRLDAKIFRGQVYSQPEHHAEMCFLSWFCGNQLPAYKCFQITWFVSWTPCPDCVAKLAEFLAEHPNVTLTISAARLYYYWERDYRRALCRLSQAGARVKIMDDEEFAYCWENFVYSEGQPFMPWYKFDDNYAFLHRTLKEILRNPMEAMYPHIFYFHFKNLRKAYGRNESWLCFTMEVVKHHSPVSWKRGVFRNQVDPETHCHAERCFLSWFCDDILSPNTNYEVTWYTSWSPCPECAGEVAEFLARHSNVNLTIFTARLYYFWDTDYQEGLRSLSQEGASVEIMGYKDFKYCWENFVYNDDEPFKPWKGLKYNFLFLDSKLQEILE

`CCN1C(=O)/C(=C2/Sc3ccc(OC)cc3N2C)SC1=Nc1cccc(O)c1` was tested. Which Potency did it give?
The Potency was active: 17.7 µM.

How did the Potency turn out when `CC(=O)Oc1c(-c2ccc(Br)o2)oc2ccccc2c1=O` was run?
The Potency was inconclusive [inhibitor, single point].

For `C=C(C)CNC(=S)N/N=C1\CCCCc2ccccc21`, which Potency is on record?
The Potency was “inactive”.

`COc1cc(/C=C2\SC(=S)N(NC(=O)c3ccc(O)c(OC)c3)C2=O)ccc1O` was tested. Which Potency did it give?
Its Potency is inconclusive [inhibitor, single point].

How did the Potency turn out when `COc1ccccc1N(C)S(=O)(=O)c1ccc(C(=O)OCC(=O)N2CCC2)cc1` was run?
Its Potency is inconclusive [inhibitor, partial curve, poor fit].

Which Potency does the source give for `COc1ccccc1/C=C/C=N/NC(=O)c1cc(-c2ccc(C)o2)[nH]n1` here?
Its Potency is inconclusive [inhibitor, single point].

Which Potency does the source give for `COc1ccc(-c2cnc3c(NC=O)cc(-c4ccccc4)cn23)cc1OC` here?
Its Potency is active: 1.77 µM.

For `C/C(=N\NC(=S)NCc1ccccc1)c1cccs1`, which Potency is on record?
Its Potency is “inactive”.

How did the Potency turn out when `COC(=O)[C@@]1(Cc2ccccc2)[C@@H]2C(=CC(=O)[C@H]2CC(=O)C(=O)N(C)C)CN1C(=O)c1ccccc1` was run?
The Potency was inconclusive [inhibitor, single point].

With `Cc1nn(Cc2c(Cl)cccc2Cl)c(C)c1NC(=O)c1cc(C(C)C)on1` as the compound, how does the Potency read?
The Potency was inconclusive [inhibitor, single point].

With `COC(=O)c1ccc(Nc2c([N+](=O)[O-])ccc3nonc23)cc1` as the compound, how does the Potency read?
The Potency was inconclusive [inhibitor, single point].

With `CCN(CC)c1cc(C)c(/C=C/c2ccnc3ccccc23)cc1C` as the compound, how does the Potency read?
Its Potency is active: 20.6 µM.

`O=C(N/N=C/c1ccco1)c1cc(-c2ccncc2)nc2ccccc12` was tested. Which Potency did it give?
The Potency was active: 6.27 µM.

`COc1ccc(N(C)S(=O)(=O)c2cccc3cccnc23)c(OC)c1` was tested. Which Potency did it give?
The Potency was inconclusive [inhibitor, partial curve].

With `O=C(N/N=C/c1ccc([N+](=O)[O-])o1)c1cc(-c2ccc(-c3ccccc3)cc2)nc2ccccc12` as the compound, how does the Potency read?
The Potency was inconclusive [inhibitor, partial curve].

Which Potency does the source give for `COc1ccccc1N1C(=O)C(Cl)=C(Nc2ccccc2O)C1=O` here?
The Potency was inconclusive [inhibitor, single point].

How did the Potency turn out when `COc1cccc(Nc2nc(Nc3ccc(Cl)c(C(=O)O)c3)nc(C)c2[N+](=O)[O-])c1` was run?
Its Potency is “inactive”.

Which Potency does the source give for `COc1ccccc1CNC(=O)c1ccc2nc3[nH]c4ccccc4c3nc2c1` here?
The Potency was inconclusive [inhibitor, single point].

For `CC(C)(C)c1ccc(OCC(=O)Nc2ccc3c4c(cccc24)C(=O)NC3=O)cc1`, which Potency is on record?
The Potency was inconclusive [inhibitor, single point].
